# Some of the results follow.
# Experiments:
# Experiment in all cases: glycan array binding signal (z-score within array); higher = stronger binding
# Details in all cases: glycan notation: IUPAC condensed, linker removed
# [1] = biological target: Fuc(a1-2)[Gal(a1-3)]Gal(b1-4)GlcNAc(b1-2)Man(a1-3)[Fuc(a1-2)[Gal(a1-3)]Gal(b1-4)GlcNAc(b1-2)Man(a1-6)]Man(b1-4)GlcNAc(b1-4)GlcNAc
# Procedure, shortened: (§1)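 The binding signal is a Z-score computed within each array and averaged over linkers. Arrays of the same protein sequence at different concentrations or buffers were also averaged together. Data originate from 3228 arrays in the Consortium for Functional Glycomics database, kept only where the protein sequence was available.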
# [2] = biological target: Fuc(a1-2)[Gal(a1-3)]Gal(b1-4)GlcNAc(b1-2)Man(a1-3)[Fuc(a1-2)[Gal(a1-3)]Gal(b1-4)GlcNAc(b1-2)Man(a1-6)]Man(b1-4)GlcNAc(b1-4)[Fuc(a1-6)]GlcNAc
# Procedure, shortened: as §1
# [3] = biological target: Fuc(a1-2)[Gal(a1-3)]Gal(b1-4)GlcNAc(b1-3)GalNAc
# Procedure, shortened: as §1
# [4] = biological target: Fuc(a1-2)[Gal(a1-3)]Gal(b1-4)GlcNAc(b1-3)[Fuc(a1-2)[Gal(a1-3)]Gal(b1-4)GlcNAc(b1-6)]GalNAc
# Procedure, shortened: as §1
# [5] = biological target: Fuc(a1-2)[Gal(a1-3)]Gal(b1-4)GlcNAc(b1-6)GalNAc
# Procedure, shortened: as §1
# [6] = biological target: Fuc(a1-2)[Gal(a1-3)]Gal(b1-4)[Fuc(a1-3)]Glc
# Procedure, shortened: as §1
# [7] = biological target: Fuc(a1-2)[Gal(a1-3)]Gal(b1-4)[Fuc(a1-3)]GlcNAc
# Procedure, shortened: as §1
# [8] = biological target: Fuc(a1-2)[Gal(a1-3)]Gal(b1-4)[Fuc(a1-3)]GlcNAc(b1-3)GalNAc
# Procedure, shortened: as §1
# [9] = biological target: Fuc(a1-2)[Gal(a1-4)]Gal(b1-4)GlcNAc
# Procedure, shortened: as §1
# [10] = biological target: Fuc(a1-2)[GalNAc(a1-3)]Gal
# Procedure, shortened: as §1
# [11] = biological target: Fuc(a1-2)[GalNAc(a1-3)]Gal(b1-3)GalNAc(a1-3)[Fuc(a1-2)]Gal(b1-4)GlcNAc
# Procedure, shortened: as §1
# [12] = biological target: Fuc(a1-2)[GalNAc(a1-3)]Gal(b1-3)GalNAc(b1-3)Gal(a1-4)Gal(b1-4)Glc
# Procedure, shortened: as §1
# [13] = biological target: Fuc(a1-2)[GalNAc(a1-3)]Gal(b1-3)GlcNAc
# Procedure, shortened: as §1
# [14] = biological target: Fuc(a1-2)[GalNAc(a1-3)]Gal(b1-3)GlcNAc(b1-2)Man(a1-3)[Fuc(a1-2)[GalNAc(a1-3)]Gal(b1-3)GlcNAc(b1-2)Man(a1-6)]Man(b1-4)GlcNAc(b1-4)GlcNAc
# Procedure, shortened: as §1
# [15] = biological target: Fuc(a1-2)[GalNAc(a1-3)]Gal(b1-3)GlcNAc(b1-2)Man(a1-3)[Fuc(a1-2)[GalNAc(a1-3)]Gal(b1-3)GlcNAc(b1-2)Man(a1-6)]Man(b1-4)GlcNAc(b1-4)[Fuc(a1-6)]GlcNAc
# Procedure, shortened: as §1
# [16] = biological target: Fuc(a1-2)[GalNAc(a1-3)]Gal(b1-3)GlcNAc(b1-3)GalNAc
# Procedure, shortened: as §1
# [17] = biological target: Fuc(a1-2)[GalNAc(a1-3)]Gal(b1-3)GlcNAc(b1-6)GalNAc
# Procedure, shortened: as §1
# [18] = biological target: Fuc(a1-2)[GalNAc(a1-3)]Gal(b1-4)Glc
# Procedure, shortened: as §1
# [19] = biological target: Fuc(a1-2)[GalNAc(a1-3)]Gal(b1-4)GlcNAc
# Procedure, shortened: as §1
# [20] = biological target: Fuc(a1-2)[GalNAc(a1-3)]Gal(b1-4)GlcNAc(b1-2)Man
# Procedure, shortened: as §1
# [21] = biological target: Fuc(a1-2)[GalNAc(a1-3)]Gal(b1-4)GlcNAc(b1-2)Man(a1-3)[Fuc(a1-2)[GalNAc(a1-3)]Gal(b1-4)GlcNAc(b1-2)Man(a1-6)]Man(b1-4)GlcNAc(b1-4)GlcNAc
# Procedure, shortened: as §1
# [22] = biological target: Fuc(a1-2)[GalNAc(a1-3)]Gal(b1-4)GlcNAc(b1-2)Man(a1-3)[Fuc(a1-2)[GalNAc(a1-3)]Gal(b1-4)GlcNAc(b1-2)Man(a1-6)]Man(b1-4)GlcNAc(b1-4)[Fuc(a1-6)]GlcNAc
# Procedure, shortened: as §1
# [23] = biological target: Fuc(a1-2)[GalNAc(a1-3)]Gal(b1-4)GlcNAc(b1-3)Gal(b1-4)GlcNAc
# Procedure, shortened: as §1
# [24] = biological target: Fuc(a1-2)[GalNAc(a1-3)]Gal(b1-4)GlcNAc(b1-3)Gal(b1-4)GlcNAc(b1-3)Gal(b1-4)GlcNAc
# Procedure, shortened: as §1
# [25] = biological target: Fuc(a1-2)[GalNAc(a1-3)]Gal(b1-4)GlcNAc(b1-3)GalNAc
# Procedure, shortened: as §1
# [26] = biological target: Fuc(a1-2)[GalNAc(a1-3)]Gal(b1-4)GlcNAc(b1-3)[Fuc(a1-2)[GalNAc(a1-3)]Gal(b1-4)GlcNAc(b1-6)]GalNAc
# Procedure, shortened: as §1
# [27] = biological target: Fuc(a1-2)[GalNAc(a1-3)]Gal(b1-4)GlcNAc(b1-6)GalNAc
# Procedure, shortened: as §1
# [28] = biological target: Fuc(a1-2)[GalNAc(a1-3)]Gal(b1-4)[Fuc(a1-3)]GlcNAc
# Procedure, shortened: as §1
# [29] = biological target: Fuc(a1-2)[GalNAc(a1-3)]Gal(b1-4)[Fuc(a1-3)]GlcNAc(b1-3)GalNAc
# Procedure, shortened: as §1
# [30] = biological target: Fuc(a1-2)[GalNAc(a1-4)]Gal(b1-4)GlcNAc
# Procedure, shortened: as §1
binder,measurement,setting,value
"a L Fucosidase (Streptosporangium roseum), D2B1P1_STRRD (protein) MRRKLLLVPAVGLLVIGSIFATQPVASADTPPVYEPTVESLNSHPVPQWFNDDKFGIFIHWGAYSVPAWGPRGSYAEWYGNYMNAGGSATNAHHKATYGQDFNYDAFLQQWKAEKFDPADWVKLFKDAGAKYFVLTSKHHEGMALWDSKSSGRDSVDLGPGRDLAKELFDAARKDEAKLKAGFYYSLYEWYNPAYTGRPATNPYTGAEIPYTGAPGGGDYVKDYMLPQMRELIDGYDPDIIWCDGQWEKPASYWNTAGVIADYYNKALNSGKEVAVANRCKIQSGNLDSPELDFQTPEYTVKPDIDPVKWESSRGIAHSYGYNQNEPEEDHLTSDQLVDSLVDIVSKNGNLLLDIGPKADGTIPEIQRQRLLDIGAWLKANGEAIYGTTYWNRAEEKGGPDDVRYTAKDATLYATALKWPGEQLTLGADLPVDHSTRITMLGSGARLSWSRDEQGRVVVNTPQEAGKHAYVFKIETPGVRSLLRTSSSLAKEIAPGRTISGELTVTNPGKRHTPATKLSLTVPQGWTATLGAPRVRPLGPGESVKVPISVSAPEGVAPAPYTLGLYQRTGRMGTTTALPLTVNRPNLSLGKPATQKSTGYDAPASRAVDGNTGGDWSAGSTTHTAEPEKQAWWQVDLGASARLDSVDVWNRLDCCADRLKDFWVMASDQPFTTDDLDQARTAPGVTAVHVGEQAGSPSKVKLPEGTRGRYVRIQLASPSNPLSLAEVQVRGSMARPNLSLGKPATQKSTGYDAPASRAVDGNTGGDWSAGSTTHTAEPEKQAWWQVDLGASARLDSVDVWNRLDCCADRLKDFWVMASDQPFTTDDLDQARTAPGVTAVHVGEQAGSPSKVKLPEGTRGRYVRIQLASPSNPLSLAEVQVRLEHHHHHHS",glycan array binding signal (z-score),[1],0.885
same,glycan array binding signal (z-score),[2],0.891
same,glycan array binding signal (z-score),[3],-0.361
same,glycan array binding signal (z-score),[4],1.11
same,glycan array binding signal (z-score),[5],-0.259
same,glycan array binding signal (z-score),[6],2.13
same,glycan array binding signal (z-score),[7],1.75
same,glycan array binding signal (z-score),[8],-0.075
same,glycan array binding signal (z-score),[9],4.37
same,glycan array binding signal (z-score),[10],3.07
same,glycan array binding signal (z-score),[11],-0.325
same,glycan array binding signal (z-score),[12],-0.376
same,glycan array binding signal (z-score),[13],0.379
same,glycan array binding signal (z-score),[14],-0.193
same,glycan array binding signal (z-score),[15],0.019
same,glycan array binding signal (z-score),[16],0.408
same,glycan array binding signal (z-score),[17],-0.487
same,glycan array binding signal (z-score),[18],2.75
same,glycan array binding signal (z-score),[19],0.006
same,glycan array binding signal (z-score),[20],1.44
same,glycan array binding signal (z-score),[21],-0.498
same,glycan array binding signal (z-score),[22],0.363
same,glycan array binding signal (z-score),[23],1.53
same,glycan array binding signal (z-score),[24],4.02
same,glycan array binding signal (z-score),[25],-0.162
same,glycan array binding signal (z-score),[26],0.654
same,glycan array binding signal (z-score),[27],-0.102
same,glycan array binding signal (z-score),[28],2.82
same,glycan array binding signal (z-score),[29],-0.182
same,glycan array binding signal (z-score),[30],0.416
